Results published in patent EP1383793B1 (priority 2000, dated 2001).
At least one peptide structure holds a part that was inferred or is arguable (an end, a ring closure or a residue). For some assays here: For at least one compound, name, drawing or mass did not settle the structure. Positions of bridges follow the written chain, without caps; N, C: chain ends. Residues, ends and D or L forms follow the SMILES beside them. *: point of attachment. Biotin = O=C1N[C@H]2[C@H](CS[C@H]2CCCCC(=O)*)N1

Assays:
[1] = target: human IGF-1 receptor (HIGF-1R) (Homo sapiens, UniProt P08069); test: 125I-IGF-1 competition binding assay on solubilised purified receptor; conditions: for Kd: read-out: Kd (µM) HIGF1R
human IGF-1 receptor (HIGF-1R), sequence (P08069 31-736 limits assumed): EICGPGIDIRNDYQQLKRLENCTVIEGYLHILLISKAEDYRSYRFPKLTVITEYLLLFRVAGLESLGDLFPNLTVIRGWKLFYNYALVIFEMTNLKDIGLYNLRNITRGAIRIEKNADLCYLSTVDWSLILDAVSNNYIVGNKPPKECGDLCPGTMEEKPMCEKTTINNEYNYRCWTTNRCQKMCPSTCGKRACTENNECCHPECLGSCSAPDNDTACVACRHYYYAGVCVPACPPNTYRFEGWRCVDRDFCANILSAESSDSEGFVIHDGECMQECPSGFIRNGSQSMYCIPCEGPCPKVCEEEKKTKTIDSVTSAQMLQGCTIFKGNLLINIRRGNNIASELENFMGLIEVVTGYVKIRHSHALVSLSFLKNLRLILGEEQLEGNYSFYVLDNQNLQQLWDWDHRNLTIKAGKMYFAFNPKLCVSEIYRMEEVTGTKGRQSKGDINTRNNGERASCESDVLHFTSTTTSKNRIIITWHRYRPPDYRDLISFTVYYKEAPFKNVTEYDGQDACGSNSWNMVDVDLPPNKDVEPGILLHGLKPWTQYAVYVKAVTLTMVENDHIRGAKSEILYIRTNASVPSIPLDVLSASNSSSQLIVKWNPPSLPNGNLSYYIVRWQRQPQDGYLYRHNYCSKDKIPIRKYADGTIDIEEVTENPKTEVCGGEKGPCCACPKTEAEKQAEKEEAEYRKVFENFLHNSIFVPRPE
human IGF-1 receptor (HIGF-1R), sequence (P08069 741-1367 limits assumed): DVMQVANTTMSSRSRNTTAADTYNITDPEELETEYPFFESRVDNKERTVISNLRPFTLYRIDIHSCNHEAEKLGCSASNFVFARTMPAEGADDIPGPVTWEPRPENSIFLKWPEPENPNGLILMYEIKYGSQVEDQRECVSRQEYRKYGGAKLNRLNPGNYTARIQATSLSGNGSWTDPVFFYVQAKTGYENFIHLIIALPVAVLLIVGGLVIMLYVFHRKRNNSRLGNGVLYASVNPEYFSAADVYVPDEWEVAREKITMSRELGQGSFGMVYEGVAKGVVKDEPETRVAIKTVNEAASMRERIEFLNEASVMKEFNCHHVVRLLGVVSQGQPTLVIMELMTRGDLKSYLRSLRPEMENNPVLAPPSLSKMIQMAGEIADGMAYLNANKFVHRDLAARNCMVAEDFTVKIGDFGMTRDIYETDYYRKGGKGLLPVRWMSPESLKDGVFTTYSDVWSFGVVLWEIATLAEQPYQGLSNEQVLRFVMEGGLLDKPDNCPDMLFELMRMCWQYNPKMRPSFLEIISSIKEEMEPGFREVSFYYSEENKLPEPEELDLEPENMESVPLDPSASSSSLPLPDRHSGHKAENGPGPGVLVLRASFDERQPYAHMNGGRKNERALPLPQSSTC

[2] = target: T1, human insulin receptor (HIR) (Homo sapiens, UniProt P06213); test: 125I-insulin competition binding assay on solubilised purified receptor; conditions: read-out: HIR affinity
T1 construct: made in house
T1 sequence (P06213 28-758 limits assumed): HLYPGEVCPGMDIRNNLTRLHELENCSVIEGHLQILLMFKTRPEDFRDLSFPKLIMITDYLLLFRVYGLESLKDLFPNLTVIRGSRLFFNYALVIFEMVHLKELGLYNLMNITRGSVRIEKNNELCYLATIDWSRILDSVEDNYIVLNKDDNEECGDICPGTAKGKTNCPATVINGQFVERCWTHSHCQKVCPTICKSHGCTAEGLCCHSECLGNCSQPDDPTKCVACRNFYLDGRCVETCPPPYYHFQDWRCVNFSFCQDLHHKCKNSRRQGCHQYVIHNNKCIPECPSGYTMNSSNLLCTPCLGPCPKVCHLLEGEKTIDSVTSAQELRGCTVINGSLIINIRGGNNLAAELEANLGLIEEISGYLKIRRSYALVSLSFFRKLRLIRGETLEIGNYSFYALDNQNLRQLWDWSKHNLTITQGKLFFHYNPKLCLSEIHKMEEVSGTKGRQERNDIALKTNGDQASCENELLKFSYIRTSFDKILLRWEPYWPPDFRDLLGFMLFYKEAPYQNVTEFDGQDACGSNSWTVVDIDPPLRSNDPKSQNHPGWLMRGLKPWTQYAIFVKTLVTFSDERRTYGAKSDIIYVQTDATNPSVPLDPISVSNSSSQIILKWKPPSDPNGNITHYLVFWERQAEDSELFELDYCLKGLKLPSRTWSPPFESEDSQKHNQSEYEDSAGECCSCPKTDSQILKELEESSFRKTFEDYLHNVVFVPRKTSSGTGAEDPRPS
T1 sequence (P06213 763-1382 limits assumed): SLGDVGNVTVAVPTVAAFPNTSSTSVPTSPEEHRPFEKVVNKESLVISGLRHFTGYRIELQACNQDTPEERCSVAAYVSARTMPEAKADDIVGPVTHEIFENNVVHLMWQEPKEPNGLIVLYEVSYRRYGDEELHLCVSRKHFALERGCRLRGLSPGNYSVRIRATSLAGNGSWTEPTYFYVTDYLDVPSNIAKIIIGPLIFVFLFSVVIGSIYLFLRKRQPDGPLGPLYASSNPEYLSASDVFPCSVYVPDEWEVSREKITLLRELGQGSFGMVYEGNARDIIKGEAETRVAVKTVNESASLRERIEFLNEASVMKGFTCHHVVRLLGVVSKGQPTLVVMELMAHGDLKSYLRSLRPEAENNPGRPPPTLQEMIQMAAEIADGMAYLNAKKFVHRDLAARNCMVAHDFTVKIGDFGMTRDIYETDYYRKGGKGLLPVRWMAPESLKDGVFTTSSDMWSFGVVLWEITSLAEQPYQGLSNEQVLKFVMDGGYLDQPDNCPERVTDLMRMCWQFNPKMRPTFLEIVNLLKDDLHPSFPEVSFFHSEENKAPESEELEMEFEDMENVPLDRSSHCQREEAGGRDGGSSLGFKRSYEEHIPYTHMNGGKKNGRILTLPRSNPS

adipocytes = test: 3H-glucose uptake into adipocytes (fat cell assay, FFC); format: cell-based, Mouse; parameters: key to FFC: 0 is no effect; + is agonist; - is antagonist

`CC[C@H](C)[C@@H]1NC(=O)[C@H](CCCNC(=N)N)NC(=O)[C@H](C(C)C)NC(=O)CNC(=O)[C@H](Cc2c[nH]c3ccccc23)NC(=O)[C@H](CO)NC(=O)[C@H](CCC(N)=O)NC(=O)[C@@H](NC(=O)[C@H](CC(C)C)NC(=O)[C@H](CC(=O)O)NC(=O)[C@H](CCCCN)NC(=O)[C@H](Cc2ccc(O)cc2)NC(=O)[C@@H](N)CC(=O)O)CSSC[C@@H](C(=O)N2CCC[C@H]2C(=O)N[C@@H](CCCCN)C(=O)N[C@@H](CCCCNC(=O)CCCC[C@@H]2SC[C@@H]3NC(=O)N[C@@H]32)C(N)=O)NC(=O)[C@H](CC(C)C)NC(=O)CNC(=O)[C@H](C)NC(=O)[C@H](CC(C)C)NC(=O)[C@H](Cc2c[nH]c3ccccc23)NC(=O)CNC1=O` [JBA5] (H-DYKDLCQSWGVRIGWLAGLCPKK(Biotin)-NH2; disulfide 6-20 (inferred); N-terminus assumed) gave a Kd [1] of 8.1 µM.
`CC(C)C[C@H](NC(=O)[C@@H](NC(=O)[C@@H](N)CCCCN)C(C)C)C(=O)N[C@@H](CCC(N)=O)C(=O)N[C@@H](C)C(=O)N[C@@H](CCCNC(=N)N)C(=O)N[C@@H](Cc1c[nH]cn1)C(=O)NCC(=O)N[C@@H](CS)C(=O)N[C@@H](CC(=O)O)C(=O)N[C@@H](CO)C(=O)N[C@H](C(=O)N[C@@H](CO)C(=O)N[C@@H](CC(=O)O)C(=O)N[C@@H](CS)C(=O)N[C@@H](Cc1ccccc1)C(=O)N[C@@H](Cc1ccc(O)cc1)C(=O)N[C@@H](CCC(=O)O)C(=O)N[C@@H](Cc1c[nH]c2ccccc12)C(=O)N[C@@H](Cc1ccccc1)C(=O)N[C@@H](C)C(=O)N[C@@H](CCCCN)C(=O)N[C@@H](CCCCNC(=O)CCCC[C@@H]1SC[C@@H]2NC(=O)N[C@@H]21)C(N)=O)C(C)C` [Clone D102] (H-KVLQARHGCDSVSDCFYEWFAKK(Biotin)-NH2; N-terminus assumed) gave a Kd [1] of 7.4 µM.
Work on `CC(C)C[C@H](NC(=O)CNC(=O)[C@H](CC(=O)O)NC(=O)[C@H](CCC(N)=O)NC(=O)[C@H](CCCCN)NC(=O)[C@H](CC(N)=O)NC(=O)[C@H](CO)NC(=O)[C@@H](NC(=O)[C@H](CC(C)C)NC(=O)CNC(=O)[C@@H]1CCCN1C(=O)[C@H](C)NC(=O)[C@H](CO)NC(=O)[C@@H](N)CCCCN)C(C)C)C(=O)N[C@@H](Cc1ccccc1)C(=O)N[C@@H](Cc1ccc(O)cc1)C(=O)N[C@@H](CO)C(=O)N[C@@H](Cc1c[nH]c2ccccc12)C(=O)N[C@@H](Cc1ccccc1)C(=O)N[C@@H](CCCNC(=N)N)C(=O)N[C@@H](CCC(=O)O)C(=O)N[C@@H](CCCCN)C(=O)N[C@@H](CCCCNC(=O)CCCC[C@@H]1SC[C@@H]2NC(=O)N[C@@H]21)C(N)=O` [Clone D109] (H-KSAPGLVSNKQDGLFYSWFREKK(Biotin)-NH2) yielded a Ratio ([1]; Kd HIGF1R / Kd HIR) of 3.3.
In the case of `CC(C)C[C@H](NC(=O)[C@H](Cc1c[nH]c2ccccc12)NC(=O)[C@@H](N)CCCCN)C(=O)N[C@@H](CC(=O)O)C(=O)N[C@@H](CCC(N)=O)C(=O)N[C@@H](CCC(=O)O)C(=O)N[C@@H](Cc1c[nH]c2ccccc12)C(=O)N[C@@H](C)C(=O)N[C@@H](Cc1c[nH]c2ccccc12)C(=O)N[C@H](C(=O)N[C@@H](CCC(N)=O)C(=O)N[C@H]1CSSC[C@@H](C(=O)N2CCC[C@H]2C(=O)N[C@@H](CO)C(=O)N[C@@H](CCCCN)C(=O)N[C@@H](CCCCNC(=O)CCCC[C@@H]2SC[C@@H]3NC(=O)N[C@@H]32)C(=O)O)NC(=O)CNC(=O)[C@H](CCCNC(=N)N)NC(=O)CNC(=O)[C@H](Cc2ccc(O)cc2)NC(=O)[C@H](C(C)C)NC(=O)[C@H](CCC(=O)O)NC1=O)C(C)C` [Clone D123A] (H-KWLDQEWAWVQCEVYGRGCPSKK(Biotin)-OH; disulfide 12-19 (inferred); N-terminus assumed), the Kd [1] is reported as > 20 µM.
`CC[C@H](C)[C@H](NC(=O)[C@H](CCC(=O)O)NC(=O)[C@@H](N)CCCCN)C(=O)N[C@@H](CCC(=O)O)C(=O)N[C@@H](C)C(=O)N[C@@H](CCC(=O)O)C(=O)N[C@@H](Cc1c[nH]c2ccccc12)C(=O)NCC(=O)N[C@@H](CCCNC(=N)N)C(=O)N[C@H](C(=O)N[C@@H](CCCNC(=N)N)C(=O)N[C@H]1CSSC[C@@H](C(=O)N[C@H](C(=O)NCC(=O)NCC(=O)N[C@@H](CCCCN)C(=O)N[C@@H](CCCCNC(=O)CCCC[C@@H]2SC[C@@H]3NC(=O)N[C@@H]32)C(N)=O)C(C)C)NC(=O)[C@H](CCCNC(=N)N)NC(=O)CNC(=O)[C@H](Cc2ccc(O)cc2)NC(=O)[C@H](C(C)C)NC(=O)[C@H](CC(C)C)NC1=O)C(C)C` [Clone 20A4] (H-KEIEAEWGRVRCLVYGRCVGGKK(Biotin)-NH2; disulfide 12-18 (inferred); N-terminus assumed) was tested, and the Kd [1] was > 20 µM.
For `CC(C)[C@H](NC(=O)[C@H](Cc1ccccc1)NC(=O)[C@H](Cc1c[nH]c2ccccc12)NC(=O)[C@H](CC(=O)O)NC(=O)[C@H](Cc1ccc(O)cc1)NC(=O)[C@H](Cc1ccccc1)NC(=O)[C@H](CC(N)=O)NC(=O)[C@H](CCC(=O)O)NC(=O)[C@H](Cc1c[nH]cn1)NC(=O)[C@@H](N)Cc1ccccc1)C(=O)N[C@@H](CCCNC(=N)N)C(=O)N[C@@H](CCC(N)=O)C(=O)N[C@H](C(=O)N[C@@H](CO)C(=O)N[C@@H](CCCCN)C(=O)N[C@@H](CCCCN)C(=O)NCC[C@H](NC(=O)[C@H](CCCCN)NC(=O)[C@H](CCCCN)NC(=O)[C@H](CO)NC(=O)[C@@H](NC(=O)[C@H](CCC(N)=O)NC(=O)[C@H](CCCNC(=N)N)NC(=O)[C@@H](NC(=O)[C@H](Cc1ccccc1)NC(=O)[C@H](Cc1c[nH]c2ccccc12)NC(=O)[C@H](CC(=O)O)NC(=O)[C@H](Cc1ccc(O)cc1)NC(=O)[C@H](Cc1ccccc1)NC(=O)[C@H](CC(N)=O)NC(=O)[C@H](CCC(=O)O)NC(=O)[C@H](Cc1c[nH]cn1)NC(=O)[C@@H](N)Cc1ccccc1)C(C)C)C(C)C)C(N)=O)C(C)C` [Clone S152], the Kd [2] was 5.2 µM.
With `CC(C)[C@H](NC(=O)[C@H](Cc1ccccc1)NC(=O)[C@H](Cc1c[nH]c2ccccc12)NC(=O)[C@H](CC(=O)O)NC(=O)[C@H](Cc1ccc(O)cc1)NC(=O)[C@H](Cc1ccccc1)NC(=O)[C@H](CC(N)=O)NC(=O)[C@H](CCC(=O)O)NC(=O)[C@H](Cc1c[nH]cn1)NC(=O)[C@@H](N)Cc1ccccc1)C(=O)N[C@@H](CCCNC(=N)N)C(=O)N[C@@H](CCC(N)=O)C(=O)N[C@H](C(=O)N[C@@H](CO)C(=O)N[C@@H](CCCCN)C(=O)N[C@@H](CCCCN)C(=O)NCCC(=O)NC[C@H](NC(=O)[C@H](CCCCN)NC(=O)[C@H](CCCCN)NC(=O)[C@H](CO)NC(=O)[C@@H](NC(=O)[C@H](CCC(N)=O)NC(=O)[C@H](CCCNC(=N)N)NC(=O)[C@@H](NC(=O)[C@H](Cc1ccccc1)NC(=O)[C@H](Cc1c[nH]c2ccccc12)NC(=O)[C@H](CC(=O)O)NC(=O)[C@H](Cc1ccc(O)cc1)NC(=O)[C@H](Cc1ccccc1)NC(=O)[C@H](CC(N)=O)NC(=O)[C@H](CCC(=O)O)NC(=O)[C@H](Cc1c[nH]cn1)NC(=O)[C@@H](N)Cc1ccccc1)C(C)C)C(C)C)C(N)=O)C(C)C` [Clone S154] the Kd [2] was 3.6 µM and the FFC (adipocytes) was “+”.
